According to PubChem BioAssay AID504339 (National Center for Advancing Translational Sciences (NCATS), 2011):
Hit rate of the full screen: of about 390,000 compounds, about 17,000 (4.4%) were called active. This list was built around the results that the source calls inconclusive (neither active nor inactive); the mix of calls is not that of the screen. Calls come from the whole dose curve; as a rule, active = well fitted inhibition curve with a large enough effect; inconclusive = small, poorly fitted or top-dose-only effect; inactive = no such curve, though single readings can be large or run the other way. Potencies of inconclusive entries are doubtful fits and often do not repeat.
Note: nearly all actives have a fitted effect of over 50% in size.
Potency is the fitted concentration of half-maximal effect; tags give direction and shape of the fitted curve.

These compounds were tested against Lysine-specific demethylase 4A (Homo sapiens) (UniProt O75164) (assay: qHTS Assay for Inhibitors of JMJD2A-Tudor Domain). Conditions: AlphaScreen JMJD2A-Tudor / H3K4me3 peptide binding; series mostly up to 114 µM.
UniProt O75164, sequence (O75164 whole entry, looked up, the tested form may be a part): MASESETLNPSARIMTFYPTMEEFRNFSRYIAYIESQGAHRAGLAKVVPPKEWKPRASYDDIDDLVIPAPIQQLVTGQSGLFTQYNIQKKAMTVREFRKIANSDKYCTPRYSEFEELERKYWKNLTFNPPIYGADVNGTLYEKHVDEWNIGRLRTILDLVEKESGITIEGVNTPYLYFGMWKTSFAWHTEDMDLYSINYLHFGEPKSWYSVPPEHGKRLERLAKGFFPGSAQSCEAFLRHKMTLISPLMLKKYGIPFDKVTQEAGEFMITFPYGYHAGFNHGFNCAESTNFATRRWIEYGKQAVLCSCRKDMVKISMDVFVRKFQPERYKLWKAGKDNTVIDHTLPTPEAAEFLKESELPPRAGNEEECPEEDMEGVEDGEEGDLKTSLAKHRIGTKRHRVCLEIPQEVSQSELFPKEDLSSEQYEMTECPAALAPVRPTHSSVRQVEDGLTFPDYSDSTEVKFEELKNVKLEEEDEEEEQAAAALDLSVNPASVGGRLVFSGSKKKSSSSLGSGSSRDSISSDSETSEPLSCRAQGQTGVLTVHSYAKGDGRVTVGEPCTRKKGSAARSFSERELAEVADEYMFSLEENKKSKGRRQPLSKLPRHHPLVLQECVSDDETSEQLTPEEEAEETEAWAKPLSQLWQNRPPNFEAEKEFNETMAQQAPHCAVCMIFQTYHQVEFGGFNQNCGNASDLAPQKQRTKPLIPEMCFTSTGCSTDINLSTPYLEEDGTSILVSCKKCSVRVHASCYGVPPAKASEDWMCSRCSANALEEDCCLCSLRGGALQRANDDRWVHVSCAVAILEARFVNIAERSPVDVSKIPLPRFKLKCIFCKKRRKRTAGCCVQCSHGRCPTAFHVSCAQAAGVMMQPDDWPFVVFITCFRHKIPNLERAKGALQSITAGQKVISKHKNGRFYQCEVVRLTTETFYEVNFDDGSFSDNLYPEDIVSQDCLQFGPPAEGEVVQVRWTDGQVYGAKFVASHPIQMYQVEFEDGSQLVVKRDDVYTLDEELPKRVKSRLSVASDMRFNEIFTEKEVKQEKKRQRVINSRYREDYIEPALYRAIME
With `CC(=O)N1CCOc2ccc(S(=O)(=O)N3CCC(C(=O)Nc4cc(C)cc(C)c4)CC3)cc21` the Potency was “inactive”.
For `Clc1ccccc1CN1CCSCC1`, the Potency was active: 25.1 µM.
In the case of `CCc1ccc(NCc2nc3ccccc3c(=O)[nH]2)cc1`, the Potency is reported as inconclusive: 63.1 µM [inhibitor, partial curve, poor fit].
For `COc1ccccc1NC(=O)N1CCN(C)CC1`, the Potency was active: 39.8 µM.
In the case of `CC1CCCCN1C(=O)CCNS(=O)(=O)c1ccc2c(c1)c(=O)n(C)c(=O)n2C` (configuration not stated), the Potency is reported as “inactive”.
In the case of `CCOC(=O)C(=O)NC1CC=CCC1c1ccc2c(c1)OCO2` (configuration not stated), the Potency is reported as inconclusive: 17.8 µM [inhibitor, full curve].
In the case of `O=C(CBr)Nc1c2c(nn1-c1ccccc1)CSC2`, the Potency is reported as “inactive”.
For `CN(C)CCCNc1cc(N2CCN(C3CCCCC3)CC2)c2noc3c2c1C(=O)c1ccccc1-3`, the Potency was active: 35.5 µM.
For `COc1ccc(Cn2ccnc2SCC(=O)Nc2nc3ccccc3s2)cc1`, the Potency was inconclusive: 50.1 µM [inhibitor, partial curve].
For `N#Cc1cccc2c1-c1ccccc1/C2=N/NC(N)=S`, the Potency was inconclusive: 1.58 µM [inhibitor, full curve, poor fit].
For `Cc1cc(Cl)c2oc(C(=O)N3CCN(c4cccc(C)n4)CC3)c(C)c2c1`, the Potency was inconclusive: 22.4 µM [inhibitor, full curve, poor fit].
With `CC(C)=C1C2CCC1C1C(=O)N(c3nc(-c4ccc(C(C)C)cc4)c(C)s3)C(=O)C21` (configuration not stated) the Potency was “inactive”.
In the case of `Cc1ccc(CSc2ncc(Cl)c(C(=O)Nc3nnc(C)s3)n2)cc1`, the Potency is reported as “inactive”.
For `Cc1cc(C)c2ccc(NN)nc2c1O`, the Potency was “inactive”.
In the case of `Cc1ccc(CN2C(=O)c3ccccc3Sc3ccc(C(=O)NCCN4CCOCC4)cc32)cc1`, the Potency is reported as inconclusive: 100 µM [inhibitor, single point].
For `CCC1=[N+](CC(=O)c2ccc(C)cc2)CCn2cccc21`, the Potency was “inactive”.
For `Oc1ccc(/C=N/Nc2ccnc3cc(Cl)ccc23)c(O)c1O`, the Potency was inconclusive: 44.7 µM [inhibitor, partial curve].
In the case of `C#CCOCCOCCOCCNc1nc(N2CCN(C(=O)[C@H](CCCCN)n3cc(CN)nn3)CC2)nc(N2CCN(C(=O)[C@H](CCCN=C(N)N)n3cc(C(N)[C@H](C)CC)nn3)CC2)n1` (some centres not stated), the Potency is reported as active: 79.4 µM.
For `Cn1c(=O)n(Cc2c(F)cccc2Cl)c(=O)c2c1nc1n2CCN1c1ccc(F)cc1`, the Potency was “inactive”.
With `CCOC(=O)c1c(-c2ccc(Cl)cc2)csc1NC(=O)CNCc1ccco1` the Potency was active: 44.7 µM.
For `O=C(NCC(=O)N1CCOCC1)c1ccc(Cl)c(Cl)c1`, the Potency was “inactive”.
With `COC(=O)c1cc2c(n1S(=O)(=O)c1ccc(C)cc1)C(=O)C(=O)c1[nH]cc(C(=O)OCc3ccccc3)c1-2` the Potency was inconclusive: 17.8 µM [inhibitor, full curve].
